Results as given in US11891445 (ABL BIO, dated 2024).

T1: human B7-H3 expressed on a cell surface (human cancer cell lines) (human, UniProt Q5ZPR3 29-534)
T1 construct: whole, on cells; also called cell surface expression B7-H3 antigen
T1 sequence (looked up): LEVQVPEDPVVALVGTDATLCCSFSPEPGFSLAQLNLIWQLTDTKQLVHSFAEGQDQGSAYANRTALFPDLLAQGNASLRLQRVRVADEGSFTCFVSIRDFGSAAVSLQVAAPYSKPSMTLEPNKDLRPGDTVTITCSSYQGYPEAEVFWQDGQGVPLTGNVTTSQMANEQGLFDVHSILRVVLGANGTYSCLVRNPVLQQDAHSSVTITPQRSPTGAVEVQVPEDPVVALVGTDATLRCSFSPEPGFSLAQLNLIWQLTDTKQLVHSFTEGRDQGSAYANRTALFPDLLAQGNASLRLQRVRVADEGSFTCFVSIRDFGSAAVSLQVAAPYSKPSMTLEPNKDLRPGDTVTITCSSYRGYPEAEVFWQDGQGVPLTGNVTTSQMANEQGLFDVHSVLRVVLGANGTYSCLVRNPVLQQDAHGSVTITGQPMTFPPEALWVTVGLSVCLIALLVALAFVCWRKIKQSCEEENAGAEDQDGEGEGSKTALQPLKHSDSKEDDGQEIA


Experiments:
[1] = target: T1, human B7-H3 expressed on a cell surface …; experiment: flow cytometry, A2780 cells, antibody 10 ug/ml
Text: (§1) Using various kinds of cancer cells A2780 (human ovarian cancer, ECACC, 93112519), SKOV-3 (human ovarian adenocarcinoma, ATCC® HTB-77™) OVCAR-3 (human ovarian adenocarcinoma, ATCC® HTB-161™), HCT116 (colon cancer cell, ThermoFIshcer Sci), HT29 (olorectal adenocarcinoma, ATCC® HTB-38™), DLD-1 (colorectal adenocarcinoma cell lines, ATCC® CCL-221™), Calu-6 (Non-small-cell lung carcinoma, ATCC® HTB-56™), HCC1954 (TNM stage IIA, grade 3, ductal carcinoma, ATCC® CRL-2338™), HCC1187 (TNM stage IIA, ATCC® CLC-2322™), renal cancer cell line 786-0 (renal cell adenocarcinoma, ATCC® CRL-1932™), A498 (kidney carcinoma, ATCC® HTB-44™), Panc-1 (pancreas epithelioid carcinoma, TCC CRL-1469™), NCI-N87 (gastric carcinoma, TCC CRL-5822™), HeLa (cervix adenocarcinoma, ATCC® CCL-2™), JeKo-1 (Lymphoma, ATCC® CRL-3006™) and FACSCalibur (BD Biosciences) device, the degree of binding of anti-B7-H3 antibody to B7-H3 was measured as follows.
(§2) After dissociating each cell line and washing it with PBS buffer, the number of cells was counted and adjusted to 2×10^5 cells/200 µl PBS, and then was treated with 10 µg/ml of B7-H3 monoclonal antibodies prepared in Example 2. Reaction was allowed at 4° C. for 1 hr. After washing the reacted cells in PBS, the FITC-labeled constant region (Fc)-specific antibody (Goat anti-human IgG FITC conjugate, Fc specific, Sigma, F9512, concentration: 2.0 mg/ml)) was diluted by 1:500 and added 100 µl per well. and Reaction was allowed at 4° C. for 1 hr. After the reaction, cells were washed in PBS and analyzed using the FACSCalibur device. The negative control group was treated by the FITC-labeled constant region (Fc) specific antibody only. To compare expression degrees of B7-H3 among different cancer cell lines, the value for the peak shift in the experimental groups treated with the B7-H3 monoclonal antibody was divided by the value for the peak shift in the negative control group (MFI Ratio, Mean Fluorescence Intensity Ratio).

[2] = target: T1, human B7-H3 expressed on a cell surface …; experiment: flow cytometry, DLD-1 cells, antibody 10 ug/ml
Text: as §1, §2

[3] = target: T1, human B7-H3 expressed on a cell surface …; experiment: flow cytometry, HCT116 cells, antibody 10 ug/ml
Text: as §1, §2

[4] = target: T1, human B7-H3 expressed on a cell surface …; experiment: flow cytometry, JeKo-1 cells, antibody 10 ug/ml
Text: as §1, §2

[5] = target: T1, human B7-H3 expressed on a cell surface …; experiment: flow cytometry, Panc-1 cells, antibody 10 ug/ml
Text: as §1, §2

[6] = target: T1, human B7-H3 expressed on a cell surface …; experiment: flow cytometry, HCC1187 cells, antibody 10 ug/ml
Text: as §1, §2

[7] = target: T1, human B7-H3 expressed on a cell surface …; experiment: flow cytometry, HCC1954 cells, antibody 10 ug/ml
Text: as §1, §2

[8] = target: T1, human B7-H3 expressed on a cell surface …; experiment: flow cytometry, NCI-N87 cells, antibody 10 ug/ml
Text: as §1, §2

[9] = target: T1, human B7-H3 expressed on a cell surface …; experiment: flow cytometry, OVCAR-3 cells, antibody 10 ug/ml
Text: as §1, §2

[10] = target: T1, human B7-H3 expressed on a cell surface …; experiment: flow cytometry, MDA-MB-231 cells, antibody 10 ug/ml

| Binder | MFI Ratio [1] [ratio] | MFI Ratio [2] [ratio] | MFI Ratio [3] [ratio] | MFI Ratio [4] [ratio] | MFI Ratio [5] [ratio] | MFI Ratio [6] [ratio] | MFI Ratio [7] [ratio] | MFI Ratio [8] [ratio] | MFI Ratio [9] [ratio] | MFI Ratio [10] [ratio] |
| --- | --- | --- | --- | --- | --- | --- | --- | --- | --- | --- |
| anti-B7-H3 antibody D8G (full IgG form) (antibody) heavy: EVQLLESGGGLVQPGGSLRLSCAASGFTFSSYSMSWVRQAPGKGLEWVSGIYSDGSNTYYADSVKGRFTISRDNSKNTLYLQMNSLRAEDTAVYYCAKMLHRFDYWGQGTLVTVSS[human IgG1 constant region not shown] light: QSVLTQPPSASGTPGQRVTISCSGSSSNIGSNSVTWYQQLPGTAPKLLIYADSQRPSGVPDRFSGSKSGTSASLAISGLRSEDEADYYCGTWDSSLNAYVFGGGTKLTVLGQPKAAPSVTLFPPSSEELQANKATLVCLISDFYPGAVTVAWKADSSPVKAGVETTTPSKQSNNKYAASSYLSLTPEQWKSHRSYSCQVTHEGSTVEKTVAPAECS | 21.6 | 18.5 | 7.9 | 3.1 | 12 | 13.3 | 25 | 21.5 | 26.7 | 8.5 |
| anti-B7-H3 antibody B5 (full IgG form) (antibody) heavy: EVQLLESGGGLVQPGGSLRLSCAASGFTFSDYAMSWVRQAPGKGLEWVSSISSGSGSIYYADSVKGRFTISRDNSKNTLYLQMNSLRAEDTAVYYCAKNLIPLDYWGQGTLVTVSS[human IgG1 constant region not shown] light: QSVLTQPPSASGTPGQRVTISCSGSSSNIGSNAVSWYQQLPGTAPKLLIYYNSHRPSGVPDRFSGSKSGTSASLAISGLRSEDEADYYCGSWDASLNAYVFGGGTKLTVLGQPKAAPSVTLFPPSSEELQANKATLVCLISDFYPGAVTVAWKADSSPVKAGVETTTPSKQSNNKYAASSYLSLTPEQWKSHRSYSCQVTHEGSTVEKTVAPAECS | 26.6 | 24.9 | 11.9 | 1.5 | 18 | 21.8 | 29 | 27.3 | 33.1 | 11.4 |
| anti-B7-H3 antibody 10F11 (full IgG form) (antibody) heavy: EVQLLESGGGLVQPGGSLRLSCAASGFTFSSYGMSWVRQAPGKGLEWVSGIYSGGSSKYYADSVKGRFTISRDNSKNTLYLQMNSLRAEDTAVYYCAKNRLRFDYWGQGTLVTVSS[human IgG1 constant region not shown] light: QSVLTQPPSASGTPGQRVTISCTGSSSNIGSNSVTWYQQLPGTAPKLLIYSDSHRPSGVPDRFSGSKSGTSASLAISGLRSEDEADYYCGTWDASLNAYVFGGGTKLTVLGQPKAAPSVTLFPPSSEELQANKATLVCLISDFYPGAVTVAWKADSSPVKAGVETTTPSKQSNNKYAASSYLSLTPEQWKSHRSYSCQVTHEGSTVEKTVAPAECS | 25.5 | 24.6 | 12 | 1.7 | 18 | 22 | 35 | 31.7 | 35.6 | 12.4 |

Other lines, results leading:

| MFI Ratio [1] [ratio] | MFI Ratio [2] [ratio] | MFI Ratio [3] [ratio] | MFI Ratio [4] [ratio] | MFI Ratio [5] [ratio] | MFI Ratio [6] [ratio] | MFI Ratio [7] [ratio] | MFI Ratio [8] [ratio] | MFI Ratio [9] [ratio] | MFI Ratio [10] [ratio] | Binder |
| --- | --- | --- | --- | --- | --- | --- | --- | --- | --- | --- |
| 25.2 | 25.6 | 10.8 |  | 19 | 18.4 | 30 | 33.4 | 33.1 | 11.3 | anti-B7-H3 antibody F6V (full IgG form) (antibody) heavy: EVQLLESGGGLVQPGGSLRLSCAASGFTFSDYAMSWVRQAPGKGLEWVSGISPGGSNTYYADSVKGRFTISRDNSKNTLYLQMNSLRAEDTAVYYCAKDAWIARLLLFDYWGQGTLVTVSS[human IgG1 constant region not shown] light: QSVLTQPPSASGTPGQRVTISCSGSSSNIGSNAVTWYQQLPGTAPKLLIYYNNKRPSGVPDRFSGSKSGTSASLAISGLRSEDEADYYCGTWDDSLSGYVFGGGTKLTVLGQPKAAPSVTLFPPSSEELQANKATLVCLISDFYPGAVTVAWKADSSPVKAGVETTTPSKQSNNKYAASSYLSLTPEQWKSHRSYSCQVTHEGSTVEKTVAPAECS |
| 18.3 | 14.9 | 6.8 | 7.9 | 12 | 11.2 | 21 | 17.6 | 22.4 | 6.2 | anti-B7-H3 antibody C4I (full IgG form) (antibody, also called C41) heavy: EVQLLESGGGLVQPGGSLRLSCAASGFTFSGYYMSWVRQAPGKGLEWVSLISPSSGSIYYADSVKGRFTISRDNSKNTLYLQMNSLRAEDTAVYYCAKGLTKFDYWGQGTLVTVSS[human IgG1 constant region not shown] light: QSVLTQPPSASGTPGQRVTISCTGSSSNIGSNDVSWYQQLPGTAPKLLIYANSHRPSGVPDRFSGSKSGTSASLAISGLRSEDEADYYCGSWDDSLSGYVFGGGTKLTVLGQPKAAPSVTLFPPSSEELQANKATLVCLISDFYPGAVTVAWKADSSPVKAGVETTTPSKQSNNKYAASSYLSLTPEQWKSHRSYSCQVTHEGSTVEKTVAPAECS |
